{
  "source": "paper PMC12136788",
  "binders": {"B1": {"name": "chr12:48362563:48362564:+_ENSG00000134291_ENST00000256686|hu_hu|hu_hu_hu_mus_False|68_98 (ssRNA)", "RNA": "GGGAGUUCUACAGUCCGACGAUCUCCGUCAAGCCCUUCAAGCCCCACUUGCGGGGGAAACUGUAAUAAUUCUAACUGGGGAAGGAAAAGAAACGCCAAAAACUUUCCAAAAAGCGGGGGUGGGGUGAGGCGGGAGGGGGAGGUCAACAGAGGAUUGAGCAUCA"}, "B2": {"name": "39542460_39542580_410_CDS_ENSG00000078142_ENST00000262039|human|control|control (ssRNA)", "RNA": "GGGAGUUCUACAGUCCGACGAUCCGAAACCGUUGUUCCUCCUACAGGCACUGCUUUUCCGGGACCAUACACAUCCCAUAUGGUGAGGGCCACUUGGGCAUUCCUGGGCAGGUCAGGGUAUUUUACUGGUAGUUUCAGCCAUUCCAACAGAGGAUUGAGCAUCA"}, "B3": {"name": "64702431_64707660_2041_CDS_ENSMUSG00000029174_ENSMUST00000119756|mouse|control|control (ssRNA)", "RNA": "GGGAGUUCUACAGUCCGACGAUCUUUAAGACACGGAGUGAUUUCUUCAUAGUCAAGCUUGAGGCGUUUGUUCAGCAAAUCGUUUUCAGAGGCUUGUAGCUUCUGAUUCUCCUUCUCCAUCCUGAGCAGCAGGAUCUGCUGCAACAACAGAGGAUUGAGCAUCA"}, "B4": {"name": "chr7:7679991:7679992:-_ENSG00000106399_ENST00000396682|hu_hu|hu_hu_hu_mus_False|1_88 (ssRNA)", "RNA": "GGGAGUUCUACAGUCCGACGAUCUGGGAUGAAUCUUUUCCAGCUUCCCUACGAAGCACACGGGCCGGUCGAUAUACUGUGGUAACAUGCUGGCGUUGACGCGCGCUUUGGGGAGCUGCAUUAUGUCCUCCAUGAUUAUGGUCCCAACAGAGGAUUGAGCAUCA"}, "B5": {"name": "chr10:33214929:33214930:-_ENSG00000150093_ENST00000302278|hu_hu|hu_hu_hu_mus_True|8_18 (ssRNA)", "RNA": "GGGAGUUCUACAGUCCGACGAUCAACAAGUUCAUUGAAAAACUCUCCUCUGUCAGUAAGACUAAGCACAUUUUUGUAGCUAAAUGGGCUGGUGCAGUUUUGUUCACUUGUACAAGGGUUCCUGAGCUUAGCUGGUGUUGUGCUCAACAGAGGAUUGAGCAUCA"}, "B6": {"name": "41082777_41082897_62_3pUTR_ENSMUSG00000036241_ENSMUST00000040008|mouse|control|control (ssRNA)", "RNA": "GGGAGUUCUACAGUCCGACGAUCCCUCACACUCGGGCCGGGCGGGGGCGGGCCUAAGGGAGUUGGGGGAAUCCGCUCCGGGCUCCGGGCCUCCCCCCCCCGGAGGGGGCCUCUACUUAUGGGGGGGGGAGUGGAGGUGGAAGCCAACAGAGGAUUGAGCAUCA"}, "B7": {"name": "chr9:3385818:3385819:+_ENSMUSG00000025899_ENSMUST00000053407|mus_mus|FALSE|FALSE (ssRNA)", "RNA": "GGGAGUUCUACAGUCCGACGAUCCCUACAAAAGUUGGAGUUAUAAAAAGAUUUUAACACAAAAGUUUAUCUUCAAAUGCUAUAUAUAUACAAACAUCACAGACUUUUCACAAGUUAAUGUCAAACACCAUACUUAAAAGGCAUCAACAGAGGAUUGAGCAUCA"}, "B8": {"name": "chr12:39756943:39756944:-_ENSG00000139116_ENST00000544797|hu_mus|hu_hu_hu_mus_False|1_8 (ssRNA)", "RNA": "GGGAGUUCUACAGUCCGACGAUCGGUUUGGCUGUUACCCCCAAGGGAAUCCUGCAAGAGUCUUGUCAGCUUAGAGUCUCUGUAAGGGACAUGGGUGGCUCUCUUGCUCUUGUCCCCCAAGGCGCUGAUUACAUUGCCAAGUGCCAACAGAGGAUUGAGCAUCA"}, "B9": {"name": "39582523_39587115_1434_3pUTR_ENSMUSG00000025862_ENSMUST00000069619|mouse|control|control (ssRNA)", "RNA": "GGGAGUUCUACAGUCCGACGAUCGGUGAGCUGAAUAAACCAGAUGAUAGACAUUUUCACAAUCUUCUGCAGUUAGAACUUCUUCACUACUCUGUAAAACAAGAGUGAGUAACUUUAUUGCUUGUACUGCAACAUCAUAUUCUUCAACAGAGGAUUGAGCAUCA"}, "B10": {"name": "88685193_88685313_3913_3pUTR_ENSG00000107779_ENST00000372037|human|control|control (ssRNA)", "RNA": "GGGAGUUCUACAGUCCGACGAUCUAUUAUCCAUAUGCAAAUUUACUUAUCUUGAUGAACACUUCAGACUUUAAUUAUGGCAGAUGAAACUUAUUAAUCAAAAUGGUUAAGGCAAUUUUCAAAUUUGUGAAAUUUGAUGUGCAGCAACAGAGGAUUGAGCAUCA"}, "B11": {"name": "chr1:46159212:46159213:+_ENSG00000159596_ENST00000372025|hu_hu|motif|central (ssRNA)", "RNA": "GGGAGUUCUACAGUCCGACGAUCUCUGAUCCCACCCAAGAAAGAUAGGAAACUGGCUCCAUAAGCCAUCUGAGUAAAAGCGGAUAUGGGAAUAUAAGUUUUUGUCAUCAGCAUGACCAGUGGUGGAGCAACGAAGGGGAUUAGCAACAGAGGAUUGAGCAUCA"}, "B12": {"name": "chr18:33606911:33606912:-_ENSG00000141425_ENST00000399022|hu_mus|motif|central (ssRNA)", "RNA": "GGGAGUUCUACAGUCCGACGAUCUUCCAAUUUAUGUUCUUUCUCUGCAAGGGCUUCCUUUUGACAACGAAGAAAAUCUGCGGACAUUCGGGUGAGUUGCUUUCUAUCAUCUAUUUCUGCCGCCAGUCUGCCAUUAUAAUCUGCCAACAGAGGAUUGAGCAUCA"}, "B13": {"name": "chr15:40510687:40510688:+_ENSG00000156970_ENST00000287598|hu_hu|FALSE|FALSE (ssRNA)", "RNA": "GGGAGUUCUACAGUCCGACGAUCCCAGAAGGACCCAUCCCAGAAGACCUGUAGGUGUUCCUUGAACAAUAGUAAAUGUGCUAAAUCUGCUAUACCAAACAGGUCUACCUGGUAGGGAGAAGAACAGUUAGCCAGGAUCUUUUGCAACAGAGGAUUGAGCAUCA"}, "B14": {"name": "chr16:94651144:94651145:+_ENSMUSG00000040785_ENSMUST00000117648|mus_hu|mus_mus_mus_hu_True|68_108 (ssRNA)", "RNA": "GGGAGUUCUACAGUCCGACGAUCAUUCUCUUGGAUCAAGUGGCGAAUAACAUAGUCCACUGCUUCAUGGACAAAAUUUCUGCUAGAAAAACAGGUUGUAUAGUCUUCUGUGCUCAAAACUUUCCAAGAAAGCAAUUCUUUGAGCAACAGAGGAUUGAGCAUCA"}, "B15": {"name": "chr4:128759998:128759999:+_ENSMUSG00000028793_ENSMUST00000168461|mus_hu|FALSE|FALSE (ssRNA)", "RNA": "GGGAGUUCUACAGUCCGACGAUCUGCACCAAGACUGGCUGUGUCUUUGGGGAAAAUUUCCUUUUGGACAUCGGCUUGAACUUCUAACCUGCUAUAUUUUCCCUUGCCACUGGAGAGAAUGCCGCCACUCAGCGUGCCCCCUGACAACAGAGGAUUGAGCAUCA"}, "B16": {"name": "chr2:9628331:9628332:+_ENSG00000134330_ENST00000482918|hu_hu|motif|central (ssRNA)", "RNA": "GGGAGUUCUACAGUCCGACGAUCUUCUGCUACAUCCCGCCAGUAAGGAAGCAGCAAAGGUAGAGAAGAGACCUUUUUCUCGGUCAAAGGCCAGAGAUGCGAGAACAAAAAUUCAUUCCCCUUUGGAGACAAAUGUAGUCCAUCCAACAGAGGAUUGAGCAUCA"}, "B17": {"name": "chr9:100389865:100389866:-_ENSG00000136925_ENST00000341170|hu_hu|motif|central (ssRNA)", "RNA": "GGGAGUUCUACAGUCCGACGAUCACAGUGAAGCAGAUAUUCCUUUCAGUUAAAUACCUCCCGCCAGUCCUGAUCCUUUCGGAGGUCUCUCUUCCCUGCACUGUCUCCGCCUAGCAAUUGUCACUGCUCACCGCCCUCGAGCCUCAACAGAGGAUUGAGCAUCA"}, "B18": {"name": "chr4:42069135:42069136:+_ENSG00000014824_ENST00000513699|hu_hu|FALSE|FALSE (ssRNA)", "RNA": "GGGAGUUCUACAGUCCGACGAUCGCUGCUAUUAUAACUCCCAAGACUGCAGCAGUAUCCUCCAAUAAUAUCACAUUUGUACUAGGAUCACGACUUUCCAUUACAUACUUGUAAAAUGACAUUCCUUUAGCCCGAGCAUUCCUACAACAGAGGAUUGAGCAUCA"}, "B19": {"name": "chr4:17845017:17845018:+_ENSG00000109805_ENST00000514176|hu_mus|hu_hu_hu_mus_False|68_78 (ssRNA)", "RNA": "GGGAGUUCUACAGUCCGACGAUCGCUCUCUUAACUUGUAUCUUCAUUAAGGAACUCGCAAGGUUAAGUUUACUUUUUCUGUAGCGCAGCUGUUUUGGCUCGUCUGGGUAAUCUCAUCUUCAUUUCUGAUGGUGGUUCAUGAUCCAACAGAGGAUUGAGCAUCA"}, "B20": {"name": "chr1:163117127:163117128:-_ENSG00000143248_ENST00000313961|hu_mus|hu_hu_hu_mus_False|48_58 (ssRNA)", "RNA": "GGGAGUUCUACAGUCCGACGAUCUGCUACAAAGGAUGUAACUCAACUCACAGGGCAACUUUUGGAAGCCUGACCAGAUUACUACUUGAUUAACUCCUUAUAAAAUUCAGAGCGCACAAAGCGGGGCAGAGAAUCCUUCUCCAUCAACAGAGGAUUGAGCAUCA"}, "B21": {"name": "chr17:45757422:45757423:+_ENSG00000108424_ENST00000290158|hu_hu|motif|central (ssRNA)", "RNA": "GGGAGUUCUACAGUCCGACGAUCUACAUCCUUCCCAAAUGCUGUACAUAAGUCCCCUAUUAGUCCAGCAGCACAAGCGGCGGCUCCAUCUGUGUGAUCCUCAUCUCCAGCAAUGUGGUCAAUGAAAGACAGAAUAAAUUCUACCAACAGAGGAUUGAGCAUCA"}, "B22": {"name": "chr7:107556004:107556005:+_ENSG00000091140_ENST00000440410|hu_hu|FALSE|FALSE (ssRNA)", "RNA": "GGGAGUUCUACAGUCCGACGAUCGAUGCGUUGAAAGUUUUUAGAUAUCUCCAUAUCAAUUCCAACUCCACCUACAUGACCUAAAAAUUCAACUGCUGUCACAUCUGCACCAAGUCUUUGCCAAACUGAACCCAAUUCUACACCCAACAGAGGAUUGAGCAUCA"}},
  "note": "This is one part of the list.",
  "data": [
    {"molecular_target": "T1, UNK ZnF1-3 (human, UniProt Q9C0B0 31-174)", "T1 sequence": "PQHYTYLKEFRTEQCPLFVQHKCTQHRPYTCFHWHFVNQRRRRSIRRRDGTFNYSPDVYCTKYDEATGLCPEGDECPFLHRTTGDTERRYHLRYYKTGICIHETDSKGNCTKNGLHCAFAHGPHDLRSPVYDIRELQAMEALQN", "assay": "nsRBNS (natural sequence RNA bind-n-seq); RBNS binding buffer (assumed for nsRBNS): 25 mM Tris pH 7.5, 150 mM KCl, 3 mM MgCl2, 0.01% Triton X-100, 500 ug/ml BSA, 20 U/ml SUPERase-In, 4 C; UNK is unkempt and MSI1 is Musashi-1; names of the RNAs are library labels; protein concentration not given here; high values mean tight binding", "units": {"binding signal": "enrichment R"}, "values": [
      {"binder": "B1", "binding signal": 2.4},
      {"binder": "B2", "binding signal": 1.01},
      {"binder": "B3", "binding signal": 0.521},
      {"binder": "B4", "binding signal": 0.48},
      {"binder": "B5", "binding signal": 0.934},
      {"binder": "B6", "binding signal": 1.01},
      {"binder": "B7", "binding signal": 0.859},
      {"binder": "B8", "binding signal": 0.492},
      {"binder": "B9", "binding signal": 0.764},
      {"binder": "B10", "binding signal": 1.22},
      {"binder": "B11", "binding signal": 1.68},
      {"binder": "B12", "binding signal": 0.682},
      {"binder": "B13", "binding signal": 0.345},
      {"binder": "B14", "binding signal": 0.52},
      {"binder": "B15", "binding signal": 0.905},
      {"binder": "B16", "binding signal": 1.31},
      {"binder": "B17", "binding signal": 1.02},
      {"binder": "B18", "binding signal": 1.11},
      {"binder": "B19", "binding signal": 0.352},
      {"binder": "B20", "binding signal": 1.31},
      {"binder": "B21", "binding signal": 1.42},
      {"binder": "B22", "binding signal": 1.31}
    ]}
  ]
}
